# Laboratory results published in PubChem BioAssay AID1345083 (National Center for Advancing Translational Sciences (NCATS), 2018).
# Values joined by “and” are separate entries in the source; they are usually repeats but may differ in a detail not shown here. Equal values may be shown once. Screen size: about 94,000 compounds; about 6,200 (6.6%) were called active. The inconclusive results got no clear call from the source; some entries with a clear call stand among them for comparison. The call rests on the fitted dose curve; in most records, active means well fitted inhibition curve with a large enough effect; inconclusive means small, poorly fitted or top-dose-only effect; inactive means flat fitted curve, though single readings scatter. A potency beside an inconclusive call is a rough fit, not a confirmed value.
# Experiment: Cytotoxic Profiling in HEK 293 Cell Line of Diverse Libraries Using Quantitative High-Throughput Screening; further: nearly all actives have a fitted effect of over 60% in size
# Conditions: HEK 293 viability, ATP luminescence (CellTiter-Glo), 48-72 h; series mostly up to 115 µM
# Method in brief: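 Cells seeded first (HEK 293, 250 cells/well), then compound added by pintool. Incubation ran 48 or 72 hr at 37 degree Celsius. CellTiter-Glo was added and luminescence imaged after 10 min at room temperature.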
# Potency means the concentration at half of the fitted maximal effect; tags describe the fitted curve by direction and shape.
row,SMILES,Potency
1,CC(NC(=O)c1ccc2c(c1)CC(=O)N2Cc1ccccc1)c1ccc(F)cc1 (centres undefined),"inconclusive: 79.4 µM [inhibitor, partial curve, poor fit]"
2,CN(Cc1ccco1)C(=O)c1cccc2c1CCN2C(=O)Nc1ccccc1,"inconclusive: 50.1 µM [inhibitor, partial curve, poor fit]"
3,COc1ccc(-c2nc(CC3CCN(C(=O)c4ccnn4C)C3)no2)cc1 (centres undefined),"inconclusive: 56.2 µM [inhibitor, partial curve, poor fit]"
4,Cn1nc(C2CCN(C(=O)c3ccc(F)cc3)CC2)c2c1CCOC2,inactive
5,O=C(C1CCC1)N1CCC(=O)N(C2CCCC2)Cc2ccccc21,"inconclusive: 56.2 µM [inhibitor, partial curve, poor fit]"
6,O=C(c1cc(Cl)ccc1F)N1CCC[C@H]1c1nc(-c2ccc(F)cc2)no1,active: 79.4 µM
7,Cc1nn(-c2ccccc2)c2c1C(C(C)C)N(C1CCN(C(=O)c3ccccc3)C1)C2=O (centres undefined),"inconclusive: 89.1 µM [inhibitor, partial curve, poor fit]"
8,COc1cccc(CN2CCC(Oc3ccc(C(=O)NC4CCCC4)cc3Cl)CC2)c1,"inconclusive: 25.1 µM [inhibitor, full curve, poor fit]"
9,O=C(O)COc1ccc(-c2nccc3c2C(=O)N(Cc2c[nH]c4ccccc24)CC(COc2ccccc2)O3)cc1 (centres undefined),inactive
10,COCC(=O)N[C@@H]1CN(C(=O)C2CC2)CC[C@@H]1c1nc(C)no1,inactive
11,OC(c1cccc(C(F)(F)F)c1)c1nc(Nc2ccc3c(c2)OCO3)n[nH]1 (centres undefined),"inconclusive: 63.1 µM [inhibitor, partial curve, poor fit]"
12,COc1cccc(-c2cc3c(=O)n(CCNC(=O)c4ccccc4Cl)ccn3n2)c1,"inconclusive: 56.2 µM [inhibitor, partial curve, poor fit]"
13,O=C(NCC1CC1)c1nc2sccn2c1-c1ccccc1,inactive
14,Cc1cc(C)cc(NC(=S)N[C@H]2CO[C@H]3[C@@H]2OC[C@H]3O)c1,inactive
15,CCOC(=O)C1CCCN(C(=O)c2nc3sccn3c2-c2ccc(F)cc2)C1 (centres undefined),inactive
16,O=C1[C@@H]2C[C@@H](CN2C(=O)C2CC2)Oc2ccccc2N1Cc1ccc(OC(F)(F)F)cc1,"inconclusive: 50.1 µM [inhibitor, partial curve, poor fit]"
17,CN(C)C(=O)NC[C@@H]1CC[C@H]2C[C@@H]1C2(C)C,"inconclusive: 141 µM [inhibitor, single point]"
18,COc1ccc(S(=O)(=O)N2CCC(OCCOc3ccccc3)CC2)cc1,"inconclusive: 50.1 µM [inhibitor, partial curve, poor fit]"
19,COc1cc(C)cc(OC)c1C(C(=O)O)N1CCN(CC2CC2)CC1 (centres undefined),"inconclusive: 3.55 µM [inhibitor, full curve, poor fit]"
20,C=CCNC(=O)N[C@H]1CCN2C(=O)c3cc(-c4cc(Cl)ccc4OC)ccc3NC(=O)[C@@H]2C1,inactive
21,COc1ccc(-c2cc(-c3cccc(NC(C)=O)c3)cn3cncc23)cn1,"inconclusive: 70.8 µM [inhibitor, full curve, poor fit]"
22,C/C=C(\C)CN1C[C@@H](NC(=O)Cn2ccnc2C)C[C@H]1C(=O)NCC,"inconclusive: 4.47 µM [inhibitor, full curve]"

row,SMILES,Potency
1,Cc1nc2cccnc2n1CC1CCCN(S(=O)(=O)c2ccc(CC(C)C)cc2)C1 (centres undefined),active: 31.6 µM
2,O=C(c1ccc2[nH]ccc2c1)N1CCCN(c2cc(-c3ccc(Br)cc3)[nH]n2)CC1,active: 22.4 µM
3,Cn1ncc2c(C(=O)NCc3cccc(F)c3)cc(-c3ccccc3C(F)(F)F)nc21,"inconclusive: 44.7 µM [inhibitor, partial curve, poor fit]"
4,O=C(CCc1ccccc1)N1C[C@@H](CO)[C@@H]2Oc3ccc(Cl)cc3[C@@H]21,active: 79.4 µM
5,O=C1NC2(CCCN([S+](=O)([O-])c3ccsc3)C2)COc2ccccc21 (centres undefined),"inconclusive: 28.2 µM [inhibitor, partial curve]"
6,CN(C)c1ccc(CN2CCC3(C2)C(=O)N(c2ccccc2)c2ccccc23)cc1 (centres undefined),"inconclusive: 50.1 µM [inhibitor, partial curve, poor fit]"
7,COc1ccc(N2Cc3c(ncnc3N3CCN(C(C)=O)CC3)N(C)CC2=O)cc1,inactive
8,O=C(c1ccccc1F)N1CCN(Cc2ccccc2-c2cccnc2)CC1,"inconclusive: 11.2 µM [inhibitor, partial curve, poor fit]"
9,CCn1cc(S(=O)(=O)N2CCC(Oc3ccccc3-c3nc(C)no3)C2)cn1 (centres undefined),inactive
10,Cn1cccc1-c1noc(C2CCN(C(=O)C3CCCCC3)C2)n1 (centres undefined),"inconclusive: 31.6 µM [inhibitor, partial curve, poor fit]"
11,Cc1ccc(CN2C(=O)OC(c3cccc(NC(=O)Cc4ccccc4)c3)C2C(=O)N2CCCC2)cc1 (centres undefined),"inconclusive: 50.1 µM [inhibitor, partial curve, poor fit]"
12,COc1cccc(-c2cc(C(=O)NCCCc3ccccc3)c3cnn(C)c3n2)c1,"inconclusive: 20 µM [inhibitor, full curve]"
13,O=C(Nc1cccc(-c2ccc(N3CCOCC3)nn2)c1)Nc1ccccc1C(F)(F)F,"inconclusive: 56.2 µM [inhibitor, partial curve, poor fit]"
14,Cc1ccccc1OCC(=O)N1CCc2c(nc3cc(-c4ccccc4Cl)[nH]n3c2=O)C1,"inconclusive: 89.1 µM [inhibitor, single point]"
15,COc1ccccc1-c1ccc(CN2CCC(NC(=O)C3CCCCC3)C2)cc1 (centres undefined),"inconclusive: 35.5 µM [inhibitor, full curve, poor fit] and inconclusive: 39.8 µM [inhibitor, full curve, poor fit]"
16,COC(=O)CNC(=O)C1=NOC2CN(C(=O)NC(C)C)CC12 (centres undefined),inactive
17,CN1CCN(C(=O)c2ccc3nnc(Cc4ccc(Cl)cc4)n3c2)CC1,inactive
18,Cc1ccccc1-c1cnc2[nH]cc(CC(=O)Nc3ccccc3)c2c1,"inconclusive: 63.1 µM [inhibitor, full curve, poor fit]"
19,CCc1noc(-c2cccn3c(CNC(=O)c4cccc(C)c4)nnc23)n1,inactive
20,O=C1CC(c2ccccc2)N(Cc2ccc(F)cc2F)CCCCCCN1 (centres undefined),"inconclusive: 89.1 µM [inhibitor, partial curve, poor fit]"
21,COc1ccc(-c2ccccc2C(=O)N2CCC(NC(=O)Cc3ccccc3)CC2)nn1,inactive
22,Cc1nn(C)c(C)c1CCN(C)C(=O)C12CCCC=C1N(C1CCCC1)C(=O)CC2 (centres undefined),"inconclusive: 89.1 µM [inhibitor, single point]"

row,SMILES,Potency
1,Cc1cc(F)ccc1OC1CN([S+](=O)([O-])CCC(F)(F)F)C1,"inconclusive: 44.7 µM [inhibitor, partial curve, poor fit]"
2,O=C1N2CCCC2CN1C1CCN(Cc2ccccc2C(F)(F)F)CC1 (centres undefined),"inconclusive: 35.5 µM [inhibitor, partial curve, poor fit]"
3,COc1cc(O)ccc1CN1CCCC2(Cc3ccccc3CNC2=O)C1 (centres undefined),inactive
4,CCc1cccc(-n2nnnc2N2CCC(C(=O)Nc3ccc(C)c(F)c3)CC2)c1,"inconclusive: 79.4 µM [inhibitor, partial curve]"
5,COc1ccccc1CNC(=O)c1ccc2c(c1)C(O)CCCCCN2C (centres undefined),"inconclusive: 100 µM [inhibitor, single point]"
6,Cc1ccc(C(=O)NC2CCCN(c3cc(-c4ccccc4)[nH]n3)C2)s1 (centres undefined),"inconclusive: 50.1 µM [inhibitor, partial curve, poor fit]"
7,CC1(CCCCN2CCOCC2)COc2ccc(C(=O)NCc3ccco3)cc2N1 (centres undefined),"inconclusive: 100 µM [inhibitor, partial curve, poor fit]"
8,Cc1ccc(NC(=O)Cn2cccc2-c2nc(-c3ccc4c(c3)OCO4)no2)cc1Cl,"inconclusive: 50.1 µM [inhibitor, partial curve, poor fit]"
9,O=C(c1cccnc1)N1CC[C@H](c2nnc(-c3cccnc3)o2)C1,inactive
10,CC#CC(=O)N1CCCC(N2CCN(c3cccc(Cl)c3)CC2)C1 (centres undefined),inactive
11,CCN(CC)C(=O)[C@@H]1CCCN1[C@H](Cc1ccccc1)C(=O)NC,inactive
12,CCOC(=O)[C@@H]1CN(C(=O)c2cccs2)[C@H]2c3ccccc3O[C@@H]12,"inconclusive: 39.8 µM [inhibitor, partial curve]"
13,Cc1ccc(NC(=O)CN2C(=O)NC3(CCS(=O)(=O)CC3)C2=O)cc1C,inactive
14,COc1ccc(C(=O)N2CCC(Cc3nc(C(C)C)no3)CC2)cc1,"inconclusive: 50.1 µM [inhibitor, partial curve, poor fit]"
15,Cc1nc(C)c(C(=O)NCC2Cn3cccc3C(=O)N2C)s1 (centres undefined),inactive
16,Cn1cc(CC(=O)N2CCCc3ncc(C(=O)Nc4cccc(C(F)(F)F)c4)cc32)c2ccccc21,"inconclusive: 50.1 µM [inhibitor, partial curve, poor fit]"
17,CS(=O)(=O)N(C1CC1)C1CCOC2(CCN(C(=O)c3ccc(F)cc3)CC2)C1 (centres undefined),inactive
18,CC1=C[C@@H](CNC(=O)c2cncnc2)[C@H](C(C)C)C[C@H]1Cc1nnc(-c2ccncc2)o1,active: 79.4 µM
19,COC(=O)C1=C(C)N=C2SC=C(CC(=O)Nc3ccc(C)cc3)N2C1c1cccc(OC)c1 (centres undefined),"inconclusive: 28.2 µM [inhibitor, full curve]"
20,O=C(Cc1ccccc1)NC1CCCN(c2ccnc3ccnn23)C1 (centres undefined),"inconclusive: 79.4 µM [inhibitor, partial curve]"
